For 104 sequences, amyloid nucleation score results are on record in the supplement of paper PMC12067230.

This is a noisy data set.
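Further: [psi-pin-] Saccharomyces cerevisiae expressing SupN fusions, induced by 100 µM Cu2SO4, selected 7 d at 30 °C without adenine and uracil, scored by deep sequencing of output versus input.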

The first data set is described as follows: amyloid nucleation score relative to library mode (yeast Sup35 reporter selection) (log enrichment difference); higher = more amyloid nucleation; sequences are the first 22 residues of the Bri2 peptide extended by up to 12 random residues. Particulars: random library (experiment): 1;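 active = nucleation score significantly above 0 at FDR 0.05; inactive = not significantly above 0 or absent from output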.
Regarding EASNCFAIRHFENKFAVETLICVWAEPSGSSFRM, the amyloid nucleation score came out at 1.99.

For the sequence EASNCFAIRHFENKFAVETLICVWAQGLGVCRRR, the amyloid nucleation score entry was “inactive”. Still for that read-out and setting: to EASNCFAIRHFENKFAVETLICVWCITTLGTAGV belongs “inactive”; to EASNCFAIRHFENKFAVETLICVWCRILRCGRW, 0.6; to EASNCFAIRHFENKFAVETLICVWEALLLVNLAR, “inactive”. The same measure, in the same setting: to EASNCFAIRHFENKFAVETLICVWFK belongs 1.29; to EASNCFAIRHFENKFAVETLICVWGTVLRFNVRT, 0.618. Still for that read-out and setting: to EASNCFAIRHFENKFAVETLICVWHRLAEWLEKG belongs “inactive”; to EASNCFAIRHFENKFAVETLICVWIHGMCFKLWM, “inactive”; to EASNCFAIRHFENKFAVETLICVWLKES, “inactive”.

Take EASNCFAIRHFENKFAVETLICVWLLYNVAGQCR: the amyloid nucleation score result is “inactive”. On the same count and under the same terms, to EASNCFAIRHFENKFAVETLICVWLRLYLVTLRS belongs -0.179.

As to EASNCFAIRHFENKFAVETLICVWLRRVVWNLS, the amyloid nucleation score result was “inactive”. Same read-out and setting: to EASNCFAIRHFENKFAVETLICVWLWLKWGGSMW belongs “inactive”; to EASNCFAIRHFENKFAVETLICVWNEMQSVMSVR, “inactive”; to EASNCFAIRHFENKFAVETLICVWNRVI, “inactive”. Still for that read-out and setting: to EASNCFAIRHFENKFAVETLICVWSFVLKIWKCA belongs “inactive”. Still for that read-out and setting: to EASNCFAIRHFENKFAVETLICVWSVRGLTFVRM belongs 0.0764. Regarding EASNCFAIRHFENKFAVETLICVWT, the amyloid nucleation score result is “inactive”. Still for that read-out and setting: the entry for EASNCFAIRHFENKFAVETLICVWTWLRVLYVAC is “inactive”. The same measure, in the same setting: the figure for EASNCFAIRHFENKFAVETLICVWVAWCKPTLRA is 0.00985. On the same count and under the same terms, to EASNCFAIRHFENKFAVETLICVWVKRPSGQPVV belongs “inactive”; to EASNCFAIRHFENKFAVETLICVWVLRDVLCNCS, “inactive”. As to EASNCFAIRHFENKFAVETLICVYASTFASELLT, the amyloid nucleation score was 1.57. Turning to EASNCFAIRHFENKFAVETLICVYCAALLPASDV, the amyloid nucleation score is 7.65. Still for that read-out and setting: to EASNCFAIRHFENKFAVETLICVYCHALQFCSVK belongs “inactive”; to EASNCFAIRHFENKFAVETLICVYCVIRFRSNGG, “inactive”; to EASNCFAIRHFENKFAVETLICVYDLMTE, “inactive”.

As to EASNCFAIRHFENKFAVETLICVYDNKPKRSVWV, the amyloid nucleation score entry is “inactive”. On the same count and under the same terms, to EASNCFAIRHFENKFAVETLICVYDYGSGKADVL belongs 0.627. On the same count and under the same terms, to EASNCFAIRHFENKFAVETLICVYGDLFPVSLCR belongs 3.88; to EASNCFAIRHFENKFAVETLICVYGRFLRGSVPA, “inactive”. On the same count and under the same terms, the entry for EASNCFAIRHFENKFAVETLICVYGYGLRLQWTC is “inactive”; for EASNCFAIRHFENKFAVETLICVYHYFLNTHSRR it is “inactive”. Take EASNCFAIRHFENKFAVETLICVYKHYFGRARMR: the amyloid nucleation score entry was “inactive”.

For the sequence EASNCFAIRHFENKFAVETLICVYLA, the amyloid nucleation score result was “inactive”. On to EASNCFAIRHFENKFAVETLICVYLPCGTFVVDG, for which the amyloid nucleation score worked out at 6.98.

EASNCFAIRHFENKFAVETLICVYLPSGDSRPVA gave an amyloid nucleation score of 6.82. As to EASNCFAIRHFENKFAVETLICVYMDHC, the amyloid nucleation score is 7.51.

On to EASNCFAIRHFENKFAVETLICVYMMPVNRICRR, for which the amyloid nucleation score result was “inactive”. Still for that read-out and setting: to EASNCFAIRHFENKFAVETLICVYRGALKRILGM belongs “inactive”; to EASNCFAIRHFENKFAVETLICVYRGVEVRWLLW, “inactive”; to EASNCFAIRHFENKFAVETLICVYRKYMFVPHGA, “inactive”. Still for that read-out and setting: the figure for EASNCFAIRHFENKFAVETLICVYRRCRLRVGW is 4.8; for EASNCFAIRHFENKFAVETLICVYRSSCSNNEWM it is “inactive”. On to EASNCFAIRHFENKFAVETLICVYRVHC, for which the amyloid nucleation score entry was “inactive”.

Regarding EASNCFAIRHFENKFAVETLICVYSGD, the amyloid nucleation score is 5.1. On the same count and under the same terms, to EASNCFAIRHFENKFAVETLICVYSRRAWSERPR belongs “inactive”.

Staying with this data set, now noted: random library (experiment): 2.
For EASNCFAIRHFENKFAVETLICVWA, the amyloid nucleation score entry is “inactive”. The same measure, in the same setting: to EASNCFAIRHFENKFAVETLICVWCFKFMTLFHH belongs “inactive”; to EASNCFAIRHFENKFAVETLICVWCSSHYPSMGH, 7.41; to EASNCFAIRHFENKFAVETLICVWDMLVDNSYVR, “inactive”.

With EASNCFAIRHFENKFAVETLICVWKSLS, the amyloid nucleation score entry is “inactive”. Still for that read-out and setting: to EASNCFAIRHFENKFAVETLICVWKTFIEGYMCS belongs 1.1; to EASNCFAIRHFENKFAVETLICVWL, 5.27.

With EASNCFAIRHFENKFAVETLICVWLIYKFTKWCV, the amyloid nucleation score is 3.52.

For the sequence EASNCFAIRHFENKFAVETLICVWM, the amyloid nucleation score came to 2.88. On the same count and under the same terms, to EASNCFAIRHFENKFAVETLICVWQNA belongs “inactive”; to EASNCFAIRHFENKFAVETLICVWQNSKARYKKM, “inactive”. Still for that read-out and setting: to EASNCFAIRHFENKFAVETLICVWSFKNARVCTS belongs -0.0392; to EASNCFAIRHFENKFAVETLICVWSRQTKDRYSE, “inactive”; to EASNCFAIRHFENKFAVETLICVWTNSCKVFSCT, 5.54.

For EASNCFAIRHFENKFAVETLICVWTV, the amyloid nucleation score result was “inactive”. On the same count and under the same terms, the figure for EASNCFAIRHFENKFAVETLICVWY is 2.51.

Take EASNCFAIRHFENKFAVETLICVWYLRVSRCIAV: the amyloid nucleation score result was “inactive”. EASNCFAIRHFENKFAVETLICVYAVLKDRKQVW yielded an amyloid nucleation score of 2.67.

For EASNCFAIRHFENKFAVETLICVYCMGVNRYTSV, the amyloid nucleation score entry was “inactive”. Take EASNCFAIRHFENKFAVETLICVYEAYRTYNHGW: the amyloid nucleation score came out at 4.09.

Consider EASNCFAIRHFENKFAVETLICVYG, for which the amyloid nucleation score result is “inactive”. Same read-out and setting: to EASNCFAIRHFENKFAVETLICVYIFDHLYHDQG belongs 2.85.

As for EASNCFAIRHFENKFAVETLICVYIVHGVRDYVS, the amyloid nucleation score result is “inactive”.

As for EASNCFAIRHFENKFAVETLICVYKVVWWVPKSW, the amyloid nucleation score entry was “inactive”.

EASNCFAIRHFENKFAVETLICVYLFKSLATGFA yielded an amyloid nucleation score of 0.68. Take EASNCFAIRHFENKFAVETLICVYLFRDTDEPWL: the amyloid nucleation score worked out at 6.13. The same measure, in the same setting: to EASNCFAIRHFENKFAVETLICVYNVQCC belongs “inactive”; to EASNCFAIRHFENKFAVETLICVYNVYTNLYRIK, 1.82. Same read-out and setting: the figure for EASNCFAIRHFENKFAVETLICVYPHCDLTAMFA is 6.48; for EASNCFAIRHFENKFAVETLICVYR it is 0.0566.

As to EASNCFAIRHFENKFAVETLICVYSFAIK, the amyloid nucleation score result is “inactive”. EASNCFAIRHFENKFAVETLICVYSSFN displayed an amyloid nucleation score of 4.28.

Staying with this data set, now noted: random library (experiment): 3.
Consider EASNCFAIRHFENKFAVETLICVWDRTF, for which the amyloid nucleation score was -0.0354.

In the case of EASNCFAIRHFENKFAVETLICVWFYMICWQSAE, the amyloid nucleation score result was “inactive”. In turn, EASNCFAIRHFENKFAVETLICVWGE yielded an amyloid nucleation score of 5.21.

EASNCFAIRHFENKFAVETLICVWGGLEELRYRR gave an amyloid nucleation score of 6.75. On the same count and under the same terms, the entry for EASNCFAIRHFENKFAVETLICVWIGSVLCRRVT is “inactive”; for EASNCFAIRHFENKFAVETLICVWLPYADLGRRN it is 3.92; for EASNCFAIRHFENKFAVETLICVWLVSSLAVEQS it is “inactive”. In the case of EASNCFAIRHFENKFAVETLICVWPVER, the amyloid nucleation score is 5.2. For EASNCFAIRHFENKFAVETLICVWQATSKEVWWW, the amyloid nucleation score entry is “inactive”.

Consider EASNCFAIRHFENKFAVETLICVWQMFWSTWRLL, for which the amyloid nucleation score result was “inactive”. The same measure, in the same setting: the entry for EASNCFAIRHFENKFAVETLICVWR is “inactive”; for EASNCFAIRHFENKFAVETLICVWRGLEVRTLRR it is “inactive”. Take EASNCFAIRHFENKFAVETLICVWRSARRRGARA: the amyloid nucleation score result was “inactive”. Same read-out and setting: to EASNCFAIRHFENKFAVETLICVWTCE belongs “inactive”. As for EASNCFAIRHFENKFAVETLICVWYQCQERWGKG, the amyloid nucleation score entry was “inactive”. On the same count and under the same terms, to EASNCFAIRHFENKFAVETLICVWYSNVTVKPRQ belongs “inactive”; to EASNCFAIRHFENKFAVETLICVYGCHRAVHNAM, 5.38.

Turning to EASNCFAIRHFENKFAVETLICVYGTGIGSMWEA, the amyloid nucleation score was 0.104.

Consider EASNCFAIRHFENKFAVETLICVYKMSFSNWYKV, for which the amyloid nucleation score came to 0.00905.

In the case of EASNCFAIRHFENKFAVETLICVYKWGSRGAMYW, the amyloid nucleation score result was “inactive”.

On to EASNCFAIRHFENKFAVETLICVYLRGAWLARPD, for which the amyloid nucleation score entry was “inactive”.

Consider EASNCFAIRHFENKFAVETLICVYNAAGRLCAFR, for which the amyloid nucleation score was 0.693.

In turn, EASNCFAIRHFENKFAVETLICVYRISW yielded an amyloid nucleation score of 4.11. EASNCFAIRHFENKFAVETLICVYSVFLFYSFLE registered an amyloid nucleation score of 0.551.
